This passage reports self-cleavage results from the RNAGym collection of RNA variant scans (doi:10.7554/elife.90254).

Read counts are not given, so values of variants with three or more changes are uncertain.

B1: OR4K15 (parent)
chain: GUUAACGGUCAUAGGCCAUGGAAACUAGGAGCACCAUUUCGCUGCCAGUGAAGAAAUGAACAAAGAAAAUCUGGGCCAGGCAGGCAUCAAAAGAAAUAGUCUUGCGCUCAACCAGAAAGUCUGUAAUCAUUUUAAGGGUA

The variants in the data set derive from B1. Description: self-cleavage, relative activity (ratio to wild type); higher = more cleavage; in vitro, sequencing; the parent is a self-cleaving ribozyme.
In the case of GUUAACGGUCAUAGGCCAUGGAAACUAGGAGCACCAUUUCGCUGCCAGUGAAGUAAUGAACAAAGAAAAUCUGUGCCAGGCUGGCAUCAAAAGAAAUAGUCUUGCGCUCAACCAGAAAGUCUGUAAUCGUUUUAAGGGUA [A54U G74U A82U A129G], the self-cleavage was 0.1.
GUUAACGGUCAUAGGCCAUGGAAACUAGGAGCACCAUUUCGCUGCCAGUGAAGAGAUGAGCAAAGCAAAUCUGGGCCAGGCAGGCAUCAAAAGAAAUAGUCUUGCGCUCAACCAGAAAGUCUGUAAUCAUUUUAAGGGUA [A55G A60G A66C]: the self-cleavage stood at 1.14.
On to GUUAACGGUCAUAGGCCAUGGAAACUAGGAGCACCAUUUCGCUGCCAGUGAAGUAAUGAACAAAGGAAAUCUGGGCCAGGCAGGCAUCAAGAGAAAUAGUCUUGCGCUCAACCAGAAAGUCUGUAAUCAUUCUAAGGGUA [A54U A66G A91G U132C], for which the self-cleavage turned out to be 1.2.
Turning to GUUAACGGUCAUAGGCCAUGGAAACUAGGAGCACCAUUUCGCUGCCAGUGAAGAGAUGAACUAAGAAAAUCUGGGCCAGGCGGGCACCAAGAGAAAUAGUCUUGCGCUCAACCAGAAAGUCUGUAAUCAUUUUAAGGGUA [A55G A62U A82G U87C A91G], the self-cleavage came to 0.05.
Consider GUUAACGGUCAUAGGCCAUGGAAACUAGGAGCACCAUUUCGCUGCCAGUGAAGAGGUGAACAAAGAAAGUCUGGGCCAGGCAGGCAUCAAAAGAAAUAGUCUUGCGCUCAACCAGGAAGUCUGUAAUCAUUUUAAGGGUA [A55G A56G A69G A116G], for which the self-cleavage came to 0.24.
As for GUUAACGGUCAUAGGCCAUGGAAACUAGGAGCACCAUUUCGCUGCCAGUGAAGAGAUGGACUAAGAAAAUCUGGGCCAGGCAGGCAUCAAAAGAAAUAGUCUUGCGCUCAACCAGAAAGUCUGUAAUCAUUUUAAGGGUA [A55G A59G A62U], the self-cleavage turned out to be 1.
GUUAACGGUCAUAGGCCAUGGAAACUAGGAGCACCAUUUCGCUGCCAGUGAAGAGGUGAACAAAGAGGAUCUGGGCCAGGCAGGCAUCAAAAGAAAUAGUCUUGCGCUCAACCAGAAAGUCUGUAAUUAUUUUAAGGGUA [A55G A56G A67G A68G C128U]: the self-cleavage was determined as 1.46.
To GUUAACGGUCAUAGGCCAUGGAAACUAGGAGCACCAUUUCGCUGCCAGUGAAGUAAUGAACUAAGAAAAUCUGGGCCAGGCAGGCAUCAAAAGAAAUAGUCUUGCGCUCAACCAGAAAGUCUGCAAUCAUUUUAAGGGUA [A54U A62U U124C] belongs 0.38.
To GUUAACGGUCAUAGGCCAUGGAAACUAGGAGCACCAUUUCGCUGCCAGUGAAGUAAUGAACAAAGAAAAUCUGGGCCGGGCAGGCAUCAAAAGAAAUAGUCUUGCGCUCGACCAGAAAGUCUGUAAUCAUUUUAAGGGUA [A54U A78G A110G] belongs 0.04; to GUUAACGGUCAUAGGCCAUGGAAACUAGGAGCACCAUUUCGCUGCCAGUGAAGAGGUGAACAGAGAAAAUCUGGGCCAGGCAGGCAUCAAAAGAAAUAGUCCUGCGCUCAGCCAGAAAGUCUGUAAUCAUUUUAAGGGUA [A55G A56G A63G U102C A111G], 0.05.
The value for GUUAACGGUCAUAGGCCAUGGAAACUAGGAGCACCAUUUCGCUGCCAGUGAAGAGAUGAACAAGGAAAAUCUGGGCCAGGCAGGCAUCAAAAGGAAUAGUCUUGCGCUCAACCAGAAAGUCUGUAAUCAUUUUAAGGGUA [A55G A64G A94G] was 1.69.
For the variant GUUAACGGUCAUAGGCCAUGGAAACUAGGAGCACCAUUUCGCUGCCAGUGAAGAGAUGGACAAAGAAAAUCUGGGCCAGGCAGGCAUCAAAAGAAAAAGUCUUGCGCUCAACCAGAAAGUCUGUAAUCAUUUUAAGGGUA [A55G A59G U97A], the self-cleavage was found to be 1.44.
For the variant GUUAACGGUCAUAGGCCAUGGAAACUAGGAGCACCAUUUCGCUGCCAGUGAAGACAUGAACAAAGAAAAUCUGGGCCAGGCAGGCAUCAAAAGAAAUAGUCUCGCGCUCAACCAGAAAGUCAGUAAUCAUUUUAAGGGUA [A55C U103C U122A], the self-cleavage stood at 0.42.
Turning to GUUAACGGUCAUAGGCCAUGGAAACUAGGAGCACCAUUUCGCUGCCAGUGAAGUAACGAACAAAGAAAACCUGGGCCAGGCAGGCAUCAAAAGAAAUAGUCUUGCGCUCAACCAGAAAGUCAGUAAUCAUUUUAAGGGUA [A54U U57C U70C U122A], the self-cleavage stood at 0.88.
The value for GUUAACGGUCAUAGGCCAUGGAAACUAGGAGCACCAUUUCGCUGCCAGUGAAGAGAUGAACAAAGAGAAUCUGGGCCAGGCAGGCAUCAAAAGAAAUAGUCUUGCGCUCAACCAGAAAGUCUGUAUUCAUUUUAAGGGUA [A55G A67G A126U] was 0.85; that for GUUAACGGUCAUAGGCCAUGGAAACUAGGAGCACCAUUUCGCUGCCAGUGAAGAGAUGAACAAAGGAAAUCUGGGCCAGGCAGGCAUCAAAAGAAAUAGCCUUGCGCUCAACCAGAAAGUCUGUAAUCAUUUUAAGGGUA [A55G A66G U100C] was 1.83.
The value for GUUAACGGUCAUAGGCCAUGGAAACUAGGAGCACCAUUUCGCUGCCAGUGAAGAGAUGGACAAAGAAAACCUGGGCCAGGCAGGCAUCAAAAGAAAUAGUCUUGCGCUCAACCAGAAAGUCUGUAAUCAUUUUAAGGGUA [A55G A59G U70C] was 0.58; that for GUUAACGGUCAUAGGCCAUGGAAACUAGGAGCACCAUUUCGCUGCCAGUGAAGAGAUGAUCAAAGAAAAUCUGGGCCAGGCAGGCAUCAAAAGAAAUAGUCCUGCGCUCAACCAGAAAGUCUGUAAUCAUUUUAAGGGUA [A55G A60U U102C] was 2.04; that for GUUAACGGUCAUAGGCCAUGGAAACUAGGAGCACCAUUUCGCUGCCAGUGAAGAGAUGAACAGAGAAAACCUGGGCCAGGCAGGCAUCAAAAGAAAUAGUCUUGCGCUCAACCAGAAAGUCUGUAAUCAUUUUAAGGGUA [A55G A63G U70C] was 0.35.
The value for GUUAACGGUCAUAGGCCAUGGAAACUAGGAGCACCAUUUCGCUGCCAGUGAAGAGAUGAACUAAGAAAAUCUGGGCCAGGCAGGCAUCAAAAGGAAUAGCCUUGCGCUCAACCAGAAAGUCUGUAAUCAUUUUAAGGGUA [A55G A62U A94G U100C] was 2.23.
Turning to GUUAACGGUCAUAGGCCAUGGAAACUAGGAGCACCAUUUCGCUGCCAGUGAAGAGAUGAACUAAGAAAAUCUGGGCCAGGCAGGCAUCAAAAGAAAUAGUCUUGCGCUCAACCAGAAUGUCUGUAAUCAUUUUAAGGGUA [A55G A62U A118U], the self-cleavage was 0.64.
